Laboratory results from the supplement of paper PMC3334620.
In all, about 33,000 sequences were measured (“E-score (-0.5 to 0.5)”: median about -0.01, highest 2% from about 0.26 on). The list shows a part of the results.

What follows are sequences tested against Ste12 (UniProt P13574) (assay: PBM E-score (8-mer binding enrichment) (E-score (-0.5 to 0.5)); higher = stronger / more preferred TF binding; most listed sequences are background and not binding sites). Conditions: protein concentration: 200 nM; construct: GST-DNA-binding domain.
How it was run: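 Yeast transcription factors, full-length or as DNA-binding domains, were expressed with a GST tag using PURExpress in vitro transcription/translation. At about 100-200 nM they were applied to universal all-10-mer Agilent arrays, double-stranded by primer extension on fresh or once-stripped slides. Fluorescent anti-GST detected bound protein, and masliner normalised the scans. E-scores for ungapped eight-base words, pooled with reverse complements, came from the Universal PBM Analysis Suite.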
ACTGCGCG was tested, and the “PBM E-score” value was 0.0441.
For AGGGAAGA, the “PBM E-score” value was -0.237.
For AGCCGTCG, the “PBM E-score” value was -0.0558.
For CATGTAGG, the “PBM E-score” value was -0.105.
In the case of ATGGATAA, the “PBM E-score” value is reported as 0.121.
With AGGGAATC the “PBM E-score” value was -0.21.
In the case of ATAACGAT, the “PBM E-score” value is reported as 0.0265.
For GACTATTA, the “PBM E-score” value was 0.13.
With TTTAAAAA the “PBM E-score” value was 0.184.
In the case of AGGAAAAC, the “PBM E-score” value is reported as -0.0394.
With CTCACTGC the “PBM E-score” value was -0.257.
For ATGGCAGC, the “PBM E-score” value was 0.0325.
GAAACGTC was tested, and the “PBM E-score” value was 0.303.
ATGGTCTA was tested, and the “PBM E-score” value was -0.163.
For CCAATAGG, the “PBM E-score” value was -0.0766.
In the case of CTATTAGA, the “PBM E-score” value is reported as -0.166.
With TCTGAACA the “PBM E-score” value was 0.0453.
In the case of ATACAGAT, the “PBM E-score” value is reported as 0.0655.
For AAATATCA, the “PBM E-score” value was 0.238.
CCCGATAC was tested, and the “PBM E-score” value was 0.031.
In the case of GTGCCAAA, the “PBM E-score” value is reported as -0.0321.
AAGTTACC was tested, and the “PBM E-score” value was 0.0128.
With CCGGCCCA the “PBM E-score” value was -0.203.
In the case of CTACGAAC, the “PBM E-score” value is reported as -0.148.
AAGGGTTG was tested, and the “PBM E-score” value was 0.0867.
For ACTAGTCA, the “PBM E-score” value was -0.171.
In the case of CTCGCATA, the “PBM E-score” value is reported as -0.0282.
CGGCGAAC was tested, and the “PBM E-score” value was 0.0131.
With ATTCAAAA the “PBM E-score” value was 0.118.
With TGATGCCA the “PBM E-score” value was -0.182.
In the case of CGGTTGTA, the “PBM E-score” value is reported as -0.21.
GTGTGCGA was tested, and the “PBM E-score” value was -0.061.
CGGTCGAC was tested, and the “PBM E-score” value was -0.0905.
In the case of GTTGAGGA, the “PBM E-score” value is reported as 0.0908.
In the case of AAAATAAA, the “PBM E-score” value is reported as 0.286.
For CCGCATTA, the “PBM E-score” value was 0.0736.
With ATACCCTC the “PBM E-score” value was -0.0306.
For ATCGAGTA, the “PBM E-score” value was -0.0649.
In the case of AGTTATGA, the “PBM E-score” value is reported as 0.0754.
With CTTTGTGC the “PBM E-score” value was -0.0467.
In the case of TCCACTCA, the “PBM E-score” value is reported as -0.132.
For CGCGGCGA, the “PBM E-score” value was 0.126.
With AACGGACG the “PBM E-score” value was -0.0491.
ATGTTCTC was tested, and the “PBM E-score” value was -0.124.
With CTACTTTC the “PBM E-score” value was -0.0458.
AGCCGGGA was tested, and the “PBM E-score” value was 0.0148.
For ATGTCAGC, the “PBM E-score” value was -0.0606.
In the case of ACGGTTCT, the “PBM E-score” value is reported as -0.0453.
For CTTTAACA, the “PBM E-score” value was 0.144.
For GTTAATTA, the “PBM E-score” value was 0.186.
With AGAGTGAT the “PBM E-score” value was -0.166.
In the case of CTACGGTA, the “PBM E-score” value is reported as -0.0646.
In the case of AAACACAG, the “PBM E-score” value is reported as 0.118.
CCCGTTAC was tested, and the “PBM E-score” value was 0.0981.
With TCGTCAAA the “PBM E-score” value was 0.184.
AAGCTCCG was tested, and the “PBM E-score” value was -0.031.
In the case of AGCGAAGA, the “PBM E-score” value is reported as 0.00299.
With TCGGTCCA the “PBM E-score” value was -0.021.
In the case of GTACTGTA, the “PBM E-score” value is reported as -0.0841.
With ATGGCGAC the “PBM E-score” value was -0.207.
With ACTAATAG the “PBM E-score” value was 0.0525.
In the case of AAACTGAC, the “PBM E-score” value is reported as -0.00654.
With GATTTTCC the “PBM E-score” value was 0.113.
In the case of CTCTTCAA, the “PBM E-score” value is reported as 0.0571.
With ACGAACTA the “PBM E-score” value was 0.0471.
AAACTGTC was tested, and the “PBM E-score” value was 0.0936.
In the case of ATCCCCTC, the “PBM E-score” value is reported as 0.303.
With CGTACGAA the “PBM E-score” value was 0.131.
With CTTGTTAA the “PBM E-score” value was 0.0962.
AACTGCCT was tested, and the “PBM E-score” value was 0.0264.
For AAACTGCT, the “PBM E-score” value was 0.00125.
With CCTGCTTA the “PBM E-score” value was -0.142.
CTGCTGTA was tested, and the “PBM E-score” value was -0.0791.
For GAGATGTA, the “PBM E-score” value was 0.0232.
With GAAGAAGA the “PBM E-score” value was -0.00959.
In the case of CGGGGTGC, the “PBM E-score” value is reported as -0.0698.
In the case of AAGGGCTC, the “PBM E-score” value is reported as -0.334.
With CACTCATA the “PBM E-score” value was 0.112.
With CGATGCCA the “PBM E-score” value was -0.141.
With AATTGTTG the “PBM E-score” value was 0.112.
With GATAAAGA the “PBM E-score” value was 0.0926.
For ACAGATTG, the “PBM E-score” value was -0.0707.
For GTGACTCA, the “PBM E-score” value was -0.0887.
With ACCACCTG the “PBM E-score” value was 0.0688.
With GCAGTCAC the “PBM E-score” value was -0.153.
With CAAACCGC the “PBM E-score” value was 0.00675.
With ACGCGCAA the “PBM E-score” value was 0.241.
AATCAAGT was tested, and the “PBM E-score” value was -0.0217.
With AACTATGT the “PBM E-score” value was -0.0705.
For ACTAGAAT, the “PBM E-score” value was 0.277.
In the case of ACCAGGGA, the “PBM E-score” value is reported as -0.169.
For CCGGGGAG, the “PBM E-score” value was 0.0943.
For ACTTCCAA, the “PBM E-score” value was 0.0619.
In the case of ATGCACAT, the “PBM E-score” value is reported as -0.00451.
ATTTGTCA was tested, and the “PBM E-score” value was 0.103.
With ATGTAAGA the “PBM E-score” value was 0.15.
For ACACGACG, the “PBM E-score” value was -0.154.
CCGTAACA was tested, and the “PBM E-score” value was 0.149.
For CGGCTGGC, the “PBM E-score” value was -0.117.
For AGCATTTG, the “PBM E-score” value was 0.0384.
In the case of AAAGAAGG, the “PBM E-score” value is reported as -0.0585.
In the case of GCGAAAGC, the “PBM E-score” value is reported as -0.133.
AGTACAGG was tested, and the “PBM E-score” value was -0.0362.
In the case of ATAATGTC, the “PBM E-score” value is reported as 0.112.
For AACGATTC, the “PBM E-score” value was -0.0106.
In the case of ACTTTCGG, the “PBM E-score” value is reported as -0.0381.
For CAAGTCGG, the “PBM E-score” value was -0.0893.
GTAGGCAC was tested, and the “PBM E-score” value was -0.143.
CTACACAG was tested, and the “PBM E-score” value was -0.123.
In the case of CCATCCGG, the “PBM E-score” value is reported as -0.0221.
With CGATATAA the “PBM E-score” value was 0.124.
AGAATTGG was tested, and the “PBM E-score” value was -0.00675.
CCGGAAAA was tested, and the “PBM E-score” value was 0.194.
For ACCAATGC, the “PBM E-score” value was -0.0379.
AATTTGGA was tested, and the “PBM E-score” value was 0.0607.
For CAAAGTAA, the “PBM E-score” value was 0.125.
With ACTTCAAA the “PBM E-score” value was 0.082.
With ACCCTTCG the “PBM E-score” value was -0.0954.
In the case of AGTATTCA, the “PBM E-score” value is reported as 0.0882.
In the case of TCATCCCA, the “PBM E-score” value is reported as 0.0235.
In the case of GACTCTAA, the “PBM E-score” value is reported as 0.115.
In the case of CCAGTAAA, the “PBM E-score” value is reported as 0.116.
For AGGCTGCG, the “PBM E-score” value was -0.101.
For CCTGGGCC, the “PBM E-score” value was 0.0535.
For TAATTTCA, the “PBM E-score” value was 0.239.
ACCGAGTG was tested, and the “PBM E-score” value was -0.197.
For TCATAAGA, the “PBM E-score” value was 0.12.
In the case of CGCGGTAC, the “PBM E-score” value is reported as -0.0101.
TACATCCA was tested, and the “PBM E-score” value was -0.0746.
With AATGCAGC the “PBM E-score” value was -0.255.
For GGGGCATA, the “PBM E-score” value was -0.0113.
For ACCAAAAG, the “PBM E-score” value was 0.13.
With CCGGATAG the “PBM E-score” value was -0.0141.
GCATCAAC was tested, and the “PBM E-score” value was 0.109.
In the case of AAAATTTA, the “PBM E-score” value is reported as 0.085.
For CCTGTAAG, the “PBM E-score” value was -0.136.
For ACTTCCCA, the “PBM E-score” value was -0.102.
With ACGCCCGA the “PBM E-score” value was -0.011.
With CGAAAAAG the “PBM E-score” value was 0.212.
CTAGGTGC was tested, and the “PBM E-score” value was -0.165.
CGGCCGAC was tested, and the “PBM E-score” value was -0.0134.
With ACAGAGAA the “PBM E-score” value was 0.127.
For ACTGGCGG, the “PBM E-score” value was 0.0599.
With GTAAGTCA the “PBM E-score” value was -0.104.
For TATTGAGA, the “PBM E-score” value was 0.214.
With CCTTTAAG the “PBM E-score” value was -0.229.
ACCGGCGG was tested, and the “PBM E-score” value was 0.0198.
With CGACCGGA the “PBM E-score” value was 0.0132.
In the case of GTGGAAGA, the “PBM E-score” value is reported as -0.173.
For TGACTCCA, the “PBM E-score” value was -0.136.
TTAATAAA was tested, and the “PBM E-score” value was 0.344.
For CACGTAGC, the “PBM E-score” value was -0.239.
In the case of CATGAACC, the “PBM E-score” value is reported as 0.106.
GAATTGGA was tested, and the “PBM E-score” value was 0.0509.
In the case of CGTTGCCC, the “PBM E-score” value is reported as -0.185.
CCCCTAAG was tested, and the “PBM E-score” value was -0.112.
In the case of GTACTTAA, the “PBM E-score” value is reported as -0.0414.
CACAGGTC was tested, and the “PBM E-score” value was -0.215.
In the case of ATAGGCCG, the “PBM E-score” value is reported as -0.293.
In the case of ATACAAAC, the “PBM E-score” value is reported as 0.18.
CACGTTCG was tested, and the “PBM E-score” value was -0.173.
CTAGGAGA was tested, and the “PBM E-score” value was -0.177.
In the case of AACCGCGT, the “PBM E-score” value is reported as 0.117.
In the case of GAGACCGA, the “PBM E-score” value is reported as -0.106.
In the case of CAACGTCA, the “PBM E-score” value is reported as -0.125.
For TCCAAAAA, the “PBM E-score” value was 0.23.
In the case of AGCCTGCC, the “PBM E-score” value is reported as -0.0832.
GGCGCCGA was tested, and the “PBM E-score” value was 0.0102.
In the case of AACGAACA, the “PBM E-score” value is reported as 0.22.
With ACTCCTGG the “PBM E-score” value was -0.166.
In the case of CCGATACG, the “PBM E-score” value is reported as -0.0585.
For CCGTCAGG, the “PBM E-score” value was -0.197.
